Paper PMC4336329 (PLoS ONE, 2015)
Screen size: about 310,000 compounds; about 14,000 (4.5%) showed an effect of 50% or more. Effects have a minus sign here. This is one part of the list.

Target: human ether-à-go-go-related gene (hERG) potassium channel (human, UniProt Q12809)
Experiment: primary screen, population patch clamp on CHO cells stably expressing hERG
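Also: peak tail current of the secondary pulse compared with the same well before compound.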

Sequence of human ether-à-go-go-related gene (hERG) potassium channel (Q12809 whole entry, looked up): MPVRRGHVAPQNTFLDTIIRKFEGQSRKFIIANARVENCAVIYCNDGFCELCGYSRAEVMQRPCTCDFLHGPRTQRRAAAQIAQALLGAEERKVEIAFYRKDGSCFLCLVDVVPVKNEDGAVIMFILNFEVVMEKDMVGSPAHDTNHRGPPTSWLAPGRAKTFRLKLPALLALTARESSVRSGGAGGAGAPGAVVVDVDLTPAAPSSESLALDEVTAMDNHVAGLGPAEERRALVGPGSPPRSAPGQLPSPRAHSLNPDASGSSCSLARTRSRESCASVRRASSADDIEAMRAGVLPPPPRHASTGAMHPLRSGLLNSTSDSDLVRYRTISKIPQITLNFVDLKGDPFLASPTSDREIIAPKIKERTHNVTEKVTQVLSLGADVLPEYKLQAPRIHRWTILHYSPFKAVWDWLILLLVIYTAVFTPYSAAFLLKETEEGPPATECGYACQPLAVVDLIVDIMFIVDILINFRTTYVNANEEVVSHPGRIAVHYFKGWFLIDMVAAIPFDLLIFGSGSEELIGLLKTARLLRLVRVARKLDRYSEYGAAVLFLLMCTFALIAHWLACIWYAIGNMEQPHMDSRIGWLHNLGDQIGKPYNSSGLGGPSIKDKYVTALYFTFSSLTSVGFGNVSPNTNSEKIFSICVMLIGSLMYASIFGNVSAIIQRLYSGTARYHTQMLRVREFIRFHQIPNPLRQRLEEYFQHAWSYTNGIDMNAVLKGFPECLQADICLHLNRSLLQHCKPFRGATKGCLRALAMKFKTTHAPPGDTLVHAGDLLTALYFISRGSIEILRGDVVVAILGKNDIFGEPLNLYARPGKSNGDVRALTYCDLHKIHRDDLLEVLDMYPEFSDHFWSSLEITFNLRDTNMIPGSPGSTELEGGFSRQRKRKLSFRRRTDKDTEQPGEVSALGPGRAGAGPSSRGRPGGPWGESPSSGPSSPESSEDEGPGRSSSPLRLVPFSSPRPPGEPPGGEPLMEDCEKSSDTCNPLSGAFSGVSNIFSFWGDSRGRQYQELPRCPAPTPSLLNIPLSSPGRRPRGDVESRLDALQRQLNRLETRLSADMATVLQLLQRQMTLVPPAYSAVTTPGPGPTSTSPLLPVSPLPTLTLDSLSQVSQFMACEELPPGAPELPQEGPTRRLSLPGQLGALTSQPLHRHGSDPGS

SMILES	hERG current change (%, negative = inhibition) at 10uM [%]
O=C(COC(=O)Cc1ccc2c(c1)OCCO2)Nc1ccc(S(=O)(=O)N2CCCC2)cc1	10.5
COc1ccc(CNC(=O)/C=C/c2ccc3[nH]cc(CCN(C)C)c3c2)cc1	-11.2
O=C(CCc1nc(-c2ccccc2F)no1)NC1CCCCCC1	-1.9
CCOc1nc(-c2ccncc2)nc2ccccc12	-10.6
COc1ccc(C2CC(=O)c3cnc(N4CCc5ccccc54)nc3C2)cc1OC (stereo not shown)	7.43
COc1cc(-c2nnc(SCC(=O)N(Cc3ccccc3)C(C)(C)C)o2)cc(OC)c1OC	-5.5
CCn1cc(CN2CCCC(C(=O)c3ccc(-c4ccccc4)cc3)C2)cn1 (stereo not shown)	-59.1
CCCn1c(N2CCN(C)CC2)nc2c1c(=O)[nH]c(=O)n2C	-13.5
O=C(N/N=C/c1c[nH]c2ccccc12)c1cccc(O)c1	18.6
O=C(COC(=O)COc1ccccc1Cl)Nc1ccccc1OC(F)F	16.1
C=CCn1c(CNC(=O)c2cccs2)nnc1SCc1ccc(Cl)cc1Cl	-41.7
CCOC(=O)c1cc2c(ccn2C)n1Cc1ccc(Cl)cc1	16.7
CNC(=O)c1cc2c(s1)CCCCCC2	-1.62
COCC1CCCN(C(=O)c2cc(COc3cccc4cccnc34)on2)C1 (stereo not shown)	1.78
O=C(NCCc1ccc(Cl)cc1)C1CCN(S(=O)(=O)c2cccs2)CC1	-71.2
COc1ccc(-c2nn(CCC(=O)O)cc2/C=C2\SC(N)=NC2=O)cc1OC	2.99
Cc1cccc(C)c1OCC(=O)N/N=C/c1ccncc1	15.4
COc1ccc(OC)c(NC(=O)C2CCCN(S(=O)(=O)c3c(C)noc3C)C2)c1 (stereo not shown)	-16.8
CN(Cc1ccccc1)C(=O)C1CCN(S(=O)(=O)c2ccc3nc4c(c(C(=O)O)c3c2)CCCC4)CC1	2.84
CC(C)N(CCCNC(=O)Cn1c(=O)c2cccn2c2ccccc21)Cc1ccccc1	-21.7
Cc1noc(C)c1COC(=O)CCN1c2ccccc2Sc2ccccc21	7.54
NC(=O)C1CCN(C(=O)c2cn(-c3ccccc3)nc2-c2cccnc2)CC1	17.5

SMILES	hERG current change (%, negative = inhibition) at 10uM [%]
COc1ccc(/C=C/C2=CC(C)(C)NC(=S)N2)cc1OC	18.7
Cc1ccc(S(=O)(=O)N(CCO)Cc2ccccc2)cc1	5.9
CCSc1nnc(NC(=O)CSc2nc3c(c(=O)n2CC)SC(C)C3)s1 (stereo not shown)	6.95
Cc1cccc(NC(=O)c2cc3c([nH]c4ccccc43)c(C)n2)c1C	11.6
O=C(C1=C(O)C(=O)N(CC2CCCO2)C1c1ccccc1Cl)c1ccco1 (stereo not shown)	9.48
C#CCOCCOCCOCCNc1nc(N2CCN(C(=O)[C@H](Cc3cc4ccccc4[nH]3)n3cc([C@@H](N)C(C)CC)nn3)CC2)nc(N2CCN(C(=O)[C@H](CCCCN)n3cc([C@@H](N)CO)nn3)CC2)n1.Cl (stereo partly shown)	7.98
Cc1cc(C)n(/N=C/c2ccco2)c(=O)c1C#N	-0.185
Cc1c(N=C2SCC(=O)N2/N=C/c2ccccc2Cl)c(=O)n(-c2ccccc2)n1C	-17.5
CCCCCCCCCCCCCC(=O)O	10.2
O=c1[nH]c(O)c(/C=C2\C=Nc3ccc(OCc4ccccc4)cc32)c(=O)[nH]1	24.9
COc1ccc(C(=O)OCC2CC(c3ccccc3)=NO2)cc1OC (stereo not shown)	-4.79
COc1cc(OC)nc(NC(=O)CSc2nc3ccccc3o2)n1	0.663
CC(C)c1ccc(NS(=O)(=O)c2ccc3[nH]cc(C(=O)N4CCC(C(N)=O)CC4)c(=O)c3c2)cc1	19.1
O=C(c1ccccc1)N1CCN(C(=O)c2ccncc2)CC1	14.3
O=C(NCc1ccccc1Cl)C1CCC(CNc2nc(=S)[nH]c3ccccc23)CC1 (stereo not shown)	16.9
CSc1nc(N)nc(SCC(=O)C23CC4CC(CC(C4)C2)C3)c1C#N	2.08
Cc1ccc(NS(=O)(=O)c2cc3c4c(cccc4c2)C(=O)NC3=O)cc1C	0.475
CCSc1ccc2cc(OC)ccc2[n+]1CC.[I-]	10.8
COc1ccc2c(c1)[C@]13CCCCC1C(C2)N(C)CC3 (stereo partly shown)	-1.83
CC1=NN(C(N)=S)C(C)(C)C1	18
Cc1cccc(NS(=O)(=O)c2cccc(C(=O)NCC(c3ccco3)N(C)C)c2)c1 (stereo not shown)	-16.6
COc1ccc(CN2CCN(CC=C(C)C)C(CCO)C2)cc1Cn1cccn1 (stereo not shown)	-31.2

SMILES	hERG current change (%, negative = inhibition) at 10uM [%]
CCC(C)(C)NC(=O)CCCSc1nc2ccccc2s1	-2.19
COc1ccc(-c2cc(C(F)(F)F)nc(SCC(=O)Nc3ccc4c(c3)OCO4)n2)cc1	1.32
Cc1cc(C)c(C(=O)NNC(=O)c2cccnc2)c(C)c1	17.5
COc1ccc(-c2nnc3n2-c2ccccc2SC3)cc1OC.Cl	16.2
COC(=O)[C@@H]1[C@H](CCc2ccccc2)NC(=O)N(Cc2ccccc2)[C@@H]1C	-15.1
CCN(CC(=O)NC1CCS(=O)(=O)C1)c1nc(-c2cccnc2)nc2ccccc12 (stereo not shown)	-40.2
Cn1c(CNC(=O)c2ccc(Cl)cc2)nnc1SCC(=O)Nc1sc2c(c1C#N)CCCC2	-4.19
I.c1ccc2c(c1)nc(N1CCCCCC1)c1ccccc12	0.834
CCN(CC)S(=O)(=O)c1ccc(-c2csc(C)n2)cc1	-12.6
O=C(NCCc1cccc(F)c1)C1CCN(S(=O)(=O)c2ccccc2)CC1	-26.9
CC1CN(C(=O)CCC(=O)NCCCN2CCN(Cc3ccccc3)CC2)c2cc(Cl)ccc2O1 (stereo not shown)	-76.1
Cc1c(C)c2c(OCC(=O)NCC(C)C)cc3c(c2oc1=O)CCC(C)(C)O3	6.44
Cl.O=C(CN1CCCCC1)Nc1cccc([N+](=O)[O-])c1	-2.28
O=C1CC(N(Cc2cccs2)C(=O)Nc2ccccc2)C(=O)N1c1ccc(Cl)cc1 (stereo not shown)	-22.6
O=C(/C=C/c1ccc(Br)cc1)NC(=S)Nc1ccc(S(=O)(=O)Nc2nccs2)cc1	12.1
CN(C)S(=O)(=O)N1CCC(Oc2ccc(C(=O)N3C[C@H]4CC[C@H]3C4)cc2)CC1	-3.95
Cl.O=C(CN1CCN(CCO)CC1)Nc1ccccc1	-4.94
COc1ccc(C(C[N+](=O)[O-])c2c(C)cc3ccccn23)cc1 (stereo not shown)	16.8
C=C1CCN([C@H](C(=O)OCc2cccc(C)c2)C(C)C)S(=O)(=O)c2ccccc21	1.84
CCc1ccc(Nc2nc3ccccc3c(=O)s2)cc1	20.9
CC(C)(C)OC(=O)CNC(=O)c1nc[nH]c1C(=O)N1CC[NH2+]CC1.[Cl-]	4.07
COc1ccc(-c2cnc3n2CCCCC3)cc1	-33.1

SMILES	hERG current change (%, negative = inhibition) at 10uM [%]
CCn1cc(C(=O)N2CC(C)CC(C)C2)c(=O)c2cc(S(=O)(=O)N3CCOCC3)ccc21 (stereo not shown)	-18.3
COc1ccc2c(c1)OC(c1ccccc1)(C(F)(F)F)NC2=O (stereo not shown)	-1.12
COc1ccc(C(=O)OCC(=O)NCC2CCCO2)cc1S(=O)(=O)N1CCCc2ccccc21 (stereo not shown)	-16.6
CC1(C)Cc2c(sc(NC(=O)C(=O)NCC3CCCO3)c2C(=O)O)CO1 (stereo not shown)	-26.7
COc1ccc(/C(C)=N/Nc2nncc3ccccc23)cc1	15.6
CCOc1ccc2oc(C(=O)N3CCN(c4ccccc4OCC)CC3)c(C)c2c1	-52.6
O=C1C2C3C=CC(C3=C3CCCCC3)C2C(=O)N1c1ccccc1 (stereo not shown)	15.3
COc1cc(C(c2sc3nc(C)nn3c2O)N2CCC3(CC2)OCCO3)cc(OC)c1OC (stereo not shown)	45.6
CCNc1nc(C23CC4CC(CC(C4)C2)C3)cs1.Cl	17.3
Cc1nc2ccccc2nc1N1CCOCC1	5.42
COc1cccc2c1C(=O)CC2NC(=O)C(F)(F)F (stereo not shown)	5.18
O=C(C1CCCO1)N1CCN(C(=S)Nc2cccc(F)c2)CC1 (stereo not shown)	13.8
O=C(CN(Cc1ccccc1)C(=O)CNS(=O)(=O)c1ccc(Cl)cc1)NCC1CCCO1 (stereo not shown)	11.2
COCCNC(=O)CN1C(=O)NC2(CCCc3ccccc32)C1=O (stereo not shown)	13.5
COc1cc2c(cc1OC)C(=O)N1[C@H]3c4ccccc4OC[C@@H]3[C@H](c3ccccc3)[C@]1(C)C(=O)N2	1.73
CCc1cccc(C)c1NC(=O)CSc1nc2ccncc2[nH]1	8.28
Cc1ccc(NC(=O)C2C3C=CC4(O3)C2C(=O)N(CCCN2CCCCC2)C4C(=O)NC2CCCCC2)cc1C (stereo not shown)	28.8
CCN(CC)c1ccc2cc(C=O)c(=O)oc2c1	-1.74
CCCCc1cc(=O)oc2c(C)c(OCC(=O)N3CCC(C(=O)O)(c4ccccc4)CC3)ccc12	6.82
